The full ranking holds about 33,000 sequences; the median of “E-score (-0.5 to 0.5)” is about -0.054, and the highest 2% start at about 0.35. The list shows a part of the results.
biological target: T1, Stb5 (UniProt P38699); test: PBM E-score (8-mer binding enrichment) (E-score (-0.5 to 0.5)); higher = stronger / more preferred TF binding; most listed sequences are background and not binding sites; conditions: protein concentration: 200 nM; construct: GST-full length
T1 sequence: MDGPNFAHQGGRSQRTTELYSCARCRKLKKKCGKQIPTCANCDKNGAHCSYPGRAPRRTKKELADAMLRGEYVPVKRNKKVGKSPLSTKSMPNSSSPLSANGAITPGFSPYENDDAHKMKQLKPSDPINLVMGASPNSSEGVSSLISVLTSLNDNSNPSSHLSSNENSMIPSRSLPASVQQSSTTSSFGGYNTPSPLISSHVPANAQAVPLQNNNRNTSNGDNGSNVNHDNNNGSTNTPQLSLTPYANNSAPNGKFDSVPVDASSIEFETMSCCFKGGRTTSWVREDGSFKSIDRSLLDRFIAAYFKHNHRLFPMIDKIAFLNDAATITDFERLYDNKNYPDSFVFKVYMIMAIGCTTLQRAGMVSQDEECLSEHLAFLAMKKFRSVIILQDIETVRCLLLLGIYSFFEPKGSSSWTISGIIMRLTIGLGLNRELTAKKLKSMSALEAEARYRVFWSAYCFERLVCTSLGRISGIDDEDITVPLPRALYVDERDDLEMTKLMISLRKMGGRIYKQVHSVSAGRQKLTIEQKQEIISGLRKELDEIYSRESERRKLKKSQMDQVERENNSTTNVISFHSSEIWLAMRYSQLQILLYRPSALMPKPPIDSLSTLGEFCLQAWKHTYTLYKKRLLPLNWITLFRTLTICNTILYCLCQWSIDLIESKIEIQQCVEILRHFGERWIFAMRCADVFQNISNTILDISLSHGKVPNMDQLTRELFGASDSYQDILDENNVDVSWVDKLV
How it was run: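 Using PURExpress in vitro transcription/translation, GST-tagged yeast transcription factors were made in full-length or DNA-binding-domain form. These were applied at about 100-200 nM to double-stranded universal all-10-mer Agilent arrays, and bound protein was detected with fluorescent anti-GST. Scans were normalised with masliner before the Universal PBM Analysis Suite assigned E-scores to ungapped eight-base words pooled with their reverse complements.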

Sequence	PBM E-score
GTTTCCTA	-0.166
ATCCTAAG	-0.165
AAAACGGA	0.23
CATTGTAC	0.00498
CGTATCAC	0.0363
AAAGACGT	-0.0995
CATGGTAG	-0.146
GATACAAA	0.0377
CAGCGGGG	0.358
AAGCGTGG	-0.208
AGAACGCT	-0.129
AAGAAATT	0.00024
GACCTACA	-0.15
CCAATACG	0.0347
GACACGGA	0.158
TTCCAGAA	-0.0885
CTTACCCA	-0.246
AGGATCAG	-0.146
GAGATACA	0.121
CTGCAATA	-0.0819
ACTTCAGC	-0.19
GATAGGAA	-0.00848
TGTGACAA	-0.153
GGATTACC	0.115
ACACACAT	-0.207

Sequence	PBM E-score
GACTCTCA	-0.0159
GCCTCGGA	-0.0464
CAGTTGAG	-0.237
ACACAGCC	-0.0105
GCTGCGAA	-0.155
CGACACAA	-0.0889
AGATCACT	-0.11
GGTTCTTA	0.0236
TACGTCTA	-0.259
CAGATAGC	-0.0877
GGCCGGGA	0.263
AATCACAT	-0.0703
AAGTACTT	-0.00725
AGGTCGTC	-0.0116
CATCTAGA	-0.281
ACTTTTAG	0.124
TGTTAACA	0.101
GATTCGGA	-0.0369
ACGTGTCG	-0.168
GCTAGGAC	0.0309
TCCCTCAA	-0.133
GGATATAA	0.259
CCTACCCA	-0.195
CATTGGCC	-0.214
ATGGTCGC	-0.0607

Sequence	PBM E-score
ATACTCAG	-0.0787
CCATGATA	-0.0306
AGAGACCT	-0.26
GTGCACCA	-0.17
ACATAAGC	-0.0813
GCTGAGAC	-0.0818
GATGCAAA	-0.0132
CGAGCTAA	0.0492
AGGCCTAT	-0.202
GCTAATGA	-0.0209
AACATCCT	-0.176
GCTGGAGA	-0.188
GGCGTGAC	-0.0272
GATGCCGA	0.332
ACACTTGC	-0.249
GTATAACA	0.143
AGACGGCT	0.134
GCCGGGTA	0.195
CGTCCGGC	0.275
CCGGTTCA	0.237
AAACCGGT	0.304
GCGGTCCA	0.187
GAGGTCAA	-0.145
ATCCAACC	0.0538
GAAGAGGC	-0.173

Sequence	PBM E-score
AGCGTAGG	-0.0276
ATTGACAC	-0.0835
GCTCGCCC	-0.0285
AAATCTGC	-0.117
ACTGATAC	-0.0202
CGGAAGGA	0.142
ATGGTTCA	-0.0452
GATAACTA	0.0203
CTAGCATA	0.0367
AACCCGTA	0.115
AAGGAGTC	-0.117
CTGAGCGC	-0.13
AAATGGTA	-0.0932
CTTGATCC	0.065
AAAATGCC	0.247
CCTTAGAA	0.0508
GTTCACAA	-0.209
ACTGCTAG	-0.181
AGGGGGGG	-0.251
AGACTTTG	-0.361
GATCAGTA	-0.16
AATTTTGA	-0.042
CCAAGGAA	-0.183
ACTATGGA	0.00151
AAAGTGTC	0.038

Sequence	PBM E-score
CCCGTCGA	0.206
GATAAAAA	0.0495
ATTTTTTC	-0.00215
ATATACTG	-0.0449
AGGCAAGC	-0.148
CGTCCCTA	-0.0559
CTGGCTGC	-0.193
CATGATAC	-0.0135
CGAGATTC	-0.165
CCAAGTAG	-0.293
CCTGGTCG	0.0613
CTTTTGCC	0.0873
ATTTCCTG	-0.105
GAGACCCC	0.0637
GGACAGCA	-0.0843
CGAATGAA	0.0336
CAAAATTA	0.0298
CTGCTTCA	-0.299
CCCCAAGG	-0.156
CGTCATAA	-0.0418
AAACATGT	-0.043
CCAACTGA	-0.28
GTTGCACA	-0.249
AAATCCAC	-0.219
AGAGCTTG	-0.268

Sequence	PBM E-score
ATGAGAGG	-0.19
ATTCACAG	-0.215
ACGAAGAA	-0.0852
AGCCCGTA	0.181
GCCACTCC	-0.00337
AACGTTTA	-0.0291
GTACGATA	-0.199
ACGCCGGA	0.343
ACGGAATA	0.0203
AAACACCC	0.191
CCCGTCGC	0.25
ACCGTTCT	0.196
CTTAGTTC	0.0266
GAATCTAC	-0.191
GAGTGCAA	0.0537
AAGACGGC	0.188
TCAAAGGA	-0.205
ATGTTATG	-0.079
ACCACAGT	-0.0137
CGCAATGC	0.0228
CACCACTA	0.0321
GTAGATAC	-0.142
CGCAGTGA	-0.0459
CAGGACCC	0.0289
ATTGTAAC	-0.119

Sequence	PBM E-score
CCACGAAC	0.0176
ACATGACG	-0.0923
CCAGGACG	0.0545
GCAGGTCC	-0.0123
GCAGAAAC	-0.065
AGATCGCG	0.0683
AAGTTACG	-0.00246
ACTAAAAG	0.141
GACACGCA	-0.0703
GCTAGATA	-0.0152
CCAGACTC	-0.0079
GTATGGTA	-0.168
TATAGTCA	-0.292
AAGCTGAG	-0.184
CTAAGAGA	-0.00422
CGAGAACC	-0.109
CCCCTAGG	-0.13
GAGAGCAC	-0.147
GACAGTAC	0.00753
CACCGACA	0.44
AGAGTGAG	-0.0787
AACGGGTA	0.102
CGGAGGAC	0.156
AAAAGTAG	-0.214
ACTTGTCA	-0.00839

Sequence	PBM E-score
AGCAAGAC	-0.0137
AAGTACTG	-0.0952
GTGCCCGA	0.172
ACACGCCG	0.277
AAACACAA	-0.125
ACATCCCG	0.148
AGACGCGA	-0.027
CTTGCGTA	-0.0824
ATAGCGTA	0.116
CTTGCAAG	0.203
TACCCTGA	-0.0521
ATATGTTA	-0.0321
CTGACGAC	-0.177
ACAGCATC	-0.197
AATGAGGA	-0.342
CACACCTC	-0.0997
CTGGACAG	-0.123
CCAATAGC	-0.113
ATTAATTG	-0.0353
ACGTTCCC	-0.205
CGTCCAAA	0.122
AGAATCTA	-0.0808
AACTTGTG	-0.138
ATGGGAAG	-0.23
ATTTTAGG	0.0353

Sequence	PBM E-score
AAACGATA	-0.107
GGCTTGAC	-0.257
ACAATGAA	-0.0923
AGCCGGTA	0.213
CGCTGTGA	0.13
CCCCCCAG	-0.397
GATTACAA	0.117
GGGACAGA	-0.102
ATTGGTCG	-0.0411
TCAAGCGA	-0.123
CGCGACGC	0.145
CGTACTCA	-0.0502
CAAGACAC	-0.0964
CCGGCGCA	0.245
CGGTCCTC	0.16
CAGGTGAC	-0.154
GGTCATGA	-0.094
CGAAACTA	-0.0416
CCTCGCGC	-0.159
